The campaign covered roughly 420,000 compounds. About 64,000 (15%) were called active. Inconclusive means that the source gave no clear call. Such entries were picked first, then a sample of the others. Calls come from the whole dose curve; as a rule, active = well fitted inhibition curve with a large enough effect; inconclusive = small, poorly fitted or top-dose-only effect; inactive = flat fitted curve, though single readings scatter. No potency is given beside an inconclusive call; the fits are too rough.
Experiment: qHTS for Inhibitors of human tyrosyl-DNA phosphodiesterase 1 (TDP1): qHTS in cells in absence of CPT; note: nearly all actives have a fitted effect of over 55% in size
Settings: DT40 Tdp1-/- hTDP1 cells, no CPT, ATP luminescence, 48 h; series mostly up to 46.2 µM
Summary of the method: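 Chicken DT40 Tdp1-/- cells complemented with human TDP1, screened without camptothecin (DMSO vehicle only), 400 cells/well. Compounds pin-transferred, cells incubated at 37 °C for at least 48 hr. Growth read as ATP-dependent luminescence (CellTiter-Glo, 30 min at RT).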
With `COC(=O)[C@]12CCCCC=C1N(CCC1=CCCCC1)C(=O)[C@H](CC(=O)NCc1cccc(C(F)(F)F)c1)C2` the Potency was active: 23.1 µM. For `COc1ccc(NC(=O)Nc2nc(C(N)Cc3ccc(C(F)(F)F)cc3)cs2)cc1` (stereo unspecified), the Potency was active: 16.4 µM. In the case of `COc1ccc(N2CCN(Cc3nc4c(c(=O)[nH]c(=O)n4C)n3Cc3ccccc3)CC2)cc1`, the Potency is reported as “inactive”. In the case of `O=C1CCCC(O)=C1N=Nc1c(Cl)cc(Cl)cc1Cl`, the Potency is reported as inconclusive [inhibitor, single point]. With `O=S(=O)(c1ccc(N2CCN(Cc3ccccc3)CC2)nc1)N1CCCC1` the Potency was inconclusive [inhibitor, single point]. With `COc1ccccc1CNC(=O)C1CCN(Cc2nc(-c3cccc(Cl)c3)oc2C)CC1` the Potency was inconclusive [inhibitor, single point]. In the case of `CCOC(=O)C(=Cc1c[nH]c2ccc(S(=O)(=O)N(C)C)cc12)C(=O)OCC`, the Potency is reported as active: 16.4 µM. For `COc1cccc(CN(C(=O)c2cc3ccccc3oc2=O)C2CC2)c1`, the Potency was inconclusive [inhibitor, single point]. For `Cc1ccc(NC(=O)COc2ccc(/C=C3/NC(=O)NC3=O)cc2)cc1`, the Potency was “inactive”. With `Cc1ccc2c(c1)nc(SCC(O)c1ccc(Br)cc1)n2C` (stereo unspecified) the Potency was inconclusive [inhibitor, single point]. In the case of `Cc1cccc(-c2nnc(SCC#N)n2-c2cccc(Cl)c2)c1`, the Potency is reported as inconclusive [inhibitor, partial curve]. With `COc1ccc(Cl)cc1S(=O)(=O)Nc1cccc(-c2ccc(N3CCOCC3)nn2)c1` the Potency was inconclusive [inhibitor, partial curve, poor fit]. In the case of `CCN1C(=O)[C@H]2[C@@H](c3ccc(OC)cc3)N3C(=O)CN(CCOC)C(=O)[C@@]3(Cc3ccccc3)[C@H]2C1=O`, the Potency is reported as “inactive”. For `COc1ccc2c(c1)OC[C@H]1[C@H]2N2C(=O)c3cc(OC)ccc3NC(=O)[C@@]2(C)[C@H]1c1ccccc1`, the Potency was inconclusive [inhibitor, single point]. In the case of `CC(C)CC(=O)NC(=S)N(Cc1ccccc1)Cc1ccccc1`, the Potency is reported as inconclusive [inhibitor, single point]. With `CCOC(=O)C1=C(C)N(c2ccccc2)C(=O)/C1=C\c1ccco1` the Potency was inconclusive [inhibitor, single point]. For `COc1ccc(/C=C2\CCCc3c2nc2ccc(C)cc2c3C(=O)O)cc1O`, the Potency was “inactive”. In the case of `O=C(N/N=C/C=C/c1ccccc1)c1cc(C2CC2)[nH]n1`, the Potency is reported as “inactive”. For `O=C(NCc1ccc2c(c1)OCO2)c1nn(-c2ccccc2)c(=O)c2ccccc12`, the Potency was inconclusive [inhibitor, partial curve]. In the case of `CCOC(=O)c1c(C)nc(C)c(C(=O)OCC)c1-c1ccc(OC)cc1`, the Potency is reported as inconclusive [inhibitor, single point]. In the case of `COc1ccc(C(=O)COC(=O)C2CCN(c3ccc(C(F)(F)F)cn3)CC2)c(OC)c1`, the Potency is reported as active: 20.6 µM. With `COc1ccc2nc(COC(=O)c3cccs3)c(C(C)=O)[n+]([O-])c2c1` the Potency was “inactive”. In the case of `Cc1nc(-c2ccccc2)sc1C1(C)CC(c2ccc([N+](=O)[O-])cc2)=NO1` (stereo unspecified), the Potency is reported as inconclusive [inhibitor, single point]. With `COc1ccc(S(=O)(=O)N2CCC(C)CC2)cc1N(C)S(=O)(=O)c1ccccc1` the Potency was inconclusive [inhibitor, single point]. For `C/C=C/c1cccc(-c2nc(C(=O)N3CCOCC3)cc3c2[C@@H](CCO)N(C(=O)NC(C)C)C3)c1`, the Potency was “inactive”. For `CC(C)CCN(CC(=O)NC(C)(C)C)C(=O)C(=O)Nc1ccc2c(c1)OCCO2`, the Potency was “inactive”. In the case of `Cc1nn(CCC#N)c(N)c1C1(O)C(=O)Nc2c(Cl)cc(Cl)cc21` (stereo unspecified), the Potency is reported as active: 3.66 µM. For `COc1ccc(C(O)c2nc(-c3cccc(C(F)(F)F)c3)cs2)cc1` (stereo unspecified), the Potency was inconclusive [inhibitor, single point]. In the case of `COc1ccc(C(=O)C2CCCN(C(=O)C3=CCCC3)C2)c(C)c1` (stereo unspecified), the Potency is reported as active: 23.1 µM. For `CCCCNC(=S)N1CCC(Cc2ccccc2)CC1`, the Potency was inconclusive [inhibitor, single point]. With `COc1ccc(C[C@H]2CN3C(=NC[C@H]3Cc3ccccc3)N2CCNC(=O)c2ccc(C)c(Br)c2)cc1` the Potency was active: 14.6 µM. In the case of `CSc1nc(N)nc2c1ncn2CC(=O)N1CCN(Cc2c(C)cc(C)cc2C)CC1`, the Potency is reported as active: 0.82 µM. In the case of `Cc1cc2c(ncn2C(C)C)c(NS(=O)(=O)c2ccc(F)cc2)c1C`, the Potency is reported as inconclusive [inhibitor, single point]. In the case of `CCCCOC(=O)c1ccc(NC(=O)/C(C#N)=C/c2ccc(-c3ccccc3)o2)cc1`, the Potency is reported as active: 16.4 µM. With `Cc1noc(C)c1S(=O)(=O)Nc1ccc2c(c1)C(=O)N([C@H](C)CO)C[C@@H](C)[C@@H](CN(C)Cc1ccc3c(c1)OCO3)O2` the Potency was inconclusive [inhibitor, single point]. In the case of `Cc1cc(OCc2cccc(S(=O)(=O)N3CCOCC3)c2)ccc1Cl`, the Potency is reported as inconclusive [inhibitor, single point]. For `CC(=O)c1cccc(NC(=O)COC(=O)CCNS(=O)(=O)c2ccccc2)c1`, the Potency was “inactive”. For `COc1ccc(NC(=O)c2cc3c(=O)n(Cc4ccco4)ccc3nc2C)c(OC)c1`, the Potency was inconclusive [inhibitor, single point]. In the case of `O=C(NCc1ccc(F)cc1)c1cc2c(s1)-c1ccccc1SC2`, the Potency is reported as inconclusive [inhibitor, single point]. In the case of `COc1cccc(/C=N/NC(=O)c2cnccn2)c1O`, the Potency is reported as inconclusive [inhibitor, single point]. For `C/C(=N\O)c1cc(Cl)ccc1O`, the Potency was “inactive”. With `CCN(c1ccc(C)c(C)c1)S(=O)(=O)c1c(C)[nH]c(=O)[nH]c1=O` the Potency was inconclusive [inhibitor, full curve]. In the case of `O=C(CCCn1c(=O)c2ccccc2n(CC(=O)Nc2ccc(F)cc2F)c1=O)NCc1ccccc1Cl`, the Potency is reported as inconclusive [inhibitor, partial curve]. With `CC(C)(C)OC(=O)C[C@@H]1C/C=C\C[C@@H](CC(=O)N[C@H](CO)Cc2ccccc2)C(=O)NC[C@@H](c2ccccc2)OC1=O` the Potency was active: 20.6 µM. For `CN(CC(=O)Nc1cccc(C#N)c1)Cc1ccc(Cl)cc1`, the Potency was inconclusive [inhibitor, partial curve]. For `Cc1ccc(-c2cc(C(=O)N3CCN(S(=O)(=O)c4ccc(Br)s4)CC3)[nH]n2)c(C)c1`, the Potency was active: 18.4 µM. With `Cc1noc(C)c1COc1ccc(C(=O)N2CCN(c3cccc(Cl)c3)CC2)cc1` the Potency was inconclusive [inhibitor, single point]. For `CC(=O)c1ccc(NC(=O)CSc2ccc3nc(-c4ccccc4)cn3n2)cc1`, the Potency was active: 25.9 µM. With `CCOc1ccc(CCNC(=O)C2Cc3ccccc3N2C(=O)CC)cc1OCC` (stereo unspecified) the Potency was “inactive”. With `Cc1cc(C)c(C#N)c(Nc2ccc3c(c2)OCCO3)n1` the Potency was inconclusive [inhibitor, single point]. In the case of `CC(=O)NC/C(C)=N\Nc1ccc([N+](=O)[O-])cc1`, the Potency is reported as inconclusive [inhibitor, single point]. With `N#C/C(=N\Nc1cccc([N+](=O)[O-])c1)C(=O)c1ccc(Br)cc1` the Potency was active: 6.51 µM. For `CCN1CC(CN(C)Cc2nc(-c3ccc(OC)c4ccccc34)oc2C)CC1=O` (stereo unspecified), the Potency was inconclusive [inhibitor, single point]. For `CCOC(=O)NCc1ccc2[nH]c(C)cc2c1`, the Potency was “inactive”. For `CC1=C(c2ccc(C(C)C)cc2)S(=O)(=O)N=C1N1CCN(C(=O)c2ccco2)CC1`, the Potency was “inactive”. In the case of `Cc1ccc(N(CC(=O)Nc2ccc(Br)c(C)c2)S(=O)(=O)c2cccs2)cc1`, the Potency is reported as “inactive”. In the case of `CCC(C)(C)c1ccc(OCCCC[n+]2cccc(C)c2C)c(C(C)(C)CC)c1`, the Potency is reported as active: 0.411 µM. For `OC(CNCC#Cc1ccccc1)c1ccccc1` (stereo unspecified), the Potency was “inactive”. In the case of `CCN1C(=S)N[C@@H](c2cccc(F)c2)C(C(=O)OC)=C1C`, the Potency is reported as “inactive”. With `COCCCNS(=O)(=O)c1ccc(S(=O)(=O)N2CCCC2)cc1` the Potency was “inactive”. For `CCc1cccc(CC)c1NC(=S)NCC(c1cccnc1)N(C)C` (stereo unspecified), the Potency was inconclusive [inhibitor, partial curve, poor fit]. With `[O-][n+]1c2ccccc2cc2ccccc21` the Potency was active: 9.2 µM. For `Cc1ccc(S(=O)(=O)N2CCCC2CNC(=O)C(=O)Nc2ccc(F)cc2)cc1` (stereo unspecified), the Potency was active: 16.4 µM. For `CC(C)NC(=NCc1ccc(Cl)cc1Cl)Nc1ccccc1`, the Potency was active: 5.17 µM. In the case of `COc1ccc(CN(C)CC2CCCN(CCc3ccc(Cl)cc3)C2)cc1OC` (stereo unspecified), the Potency is reported as inconclusive [inhibitor, single point]. In the case of `ClCCn1c(CCl)nc2ccc(Cl)cc21`, the Potency is reported as active: 16.4 µM. In the case of `O=C(Cc1cccs1)NNC(=S)NCc1ccco1`, the Potency is reported as “inactive”. In the case of `Nc1nc(-c2ccccc2)c(CCCNc2ccccc2)c(=O)[nH]1`, the Potency is reported as inconclusive [inhibitor, single point]. With `Cc1nn(C)c(Nc2ccc(Br)cc2)c1Br` the Potency was active: 18.4 µM. In the case of `CC(C)(C)OC(=O)N1CCC(c2c(C(=O)N3CCN(c4ncccn4)CC3)cnn2-c2ccc(F)cc2F)CC1`, the Potency is reported as inconclusive [inhibitor, single point]. In the case of `COc1ccc(-c2cn3nc(N4CCC(C(=O)Nc5cc(Cl)ccc5OC)CC4)sc3n2)cc1`, the Potency is reported as inconclusive [inhibitor, partial curve].
Potency is the fitted concentration of half-maximal effect; tags give direction and shape of the fitted curve.
